The text below walks through data of article PMC12820563, “FoxP3 forms a head-to-head dimer in vivo and stabilizes its multimerization on adjacent microsatellites”.

Some of the results follow.

The test deals with T1, MBP-FoxP1dN (Mus musculus, UniProt P58462 326-579).
T1 sequence: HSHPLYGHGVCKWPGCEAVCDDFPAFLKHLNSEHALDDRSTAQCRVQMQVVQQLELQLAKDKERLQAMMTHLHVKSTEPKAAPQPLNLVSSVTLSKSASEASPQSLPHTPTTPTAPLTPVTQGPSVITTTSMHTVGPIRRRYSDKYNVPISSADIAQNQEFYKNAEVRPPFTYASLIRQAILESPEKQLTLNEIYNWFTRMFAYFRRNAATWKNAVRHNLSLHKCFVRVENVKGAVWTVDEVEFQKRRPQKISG
The test is described as follows: PD-seq (MBP pull-down with sequencing); 20 mM Tris-HCl pH 7.5, 100 mM NaCl, 1.5 mM MgCl2, 0.4 uM protein, 0.1 uM dsDNA library, 30 min, room temperature, amylose pull-down; high values mean tight binding. The settings on record: protein: recombinant; tags: His6-MBP; chain copies: 2; dsDNA, one strand shown. An outline of the steps:
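In Tris pH 7.5 buffer with NaCl and MgCl2, 0.4 µM His6-MBP-tagged mouse FoxP3 or FoxP1 fragment lacking the N-terminus, from E. coli, met 0.1 µM Klenow-filled double-stranded degenerate DNA library for 30 min at room temperature. Three washes on amylose resin followed capture of the complexes, then proteinase K release of DNA, PCR barcoding and Illumina sequencing. Binding is taken as pooled-replicate reads-per-million enrichment of pull-down relative to input.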
Take “GATGATTGTTCTCCCAGCTGATGAATTCCGTCGGTCGAGTAAACAAATTTTCCTAATCTTTCTGTTCAAGCGCCATCTAC”: the binding signal is 0.786 RPM ratio (pull-down/input).

Turning to “GATGATTGTTCTCCCAGCTGATGAATTCTGGGATTCGAGTAAACAAATTTTCCTAATCTTTCTGTTCAAGCGCCATCTAC”, the binding signal was 0.861 RPM ratio (pull-down/input).

For “GATGATTGTTCTCCCAGCTGATGAATTAGGCGGCTCGAGTAAACAAATTTTCCTAATCTTTCTGTTCAAGCGCCATCTAC”, the binding signal was 0.894 RPM ratio (pull-down/input). Regarding “GATGATTGTTCTCCCAGCTGATGAATTTTTTACTTCGAGTAAACAAATTTTCCTAATCTTTCTGTTCAAGCGCCATCTAC”, the binding signal was 1.05 RPM ratio (pull-down/input). On to “GATGATTGTTCTCCCAGCTGATGAATTCAACAGTTCGAGTAAACAAATTTTCCTAATCTTTCTGTTCAAGCGCCATCTAC”, for which the binding signal was 0.932 RPM ratio (pull-down/input). For “GATGATTGTTCTCCCAGCTGATGAATTTACCTACTCGAGTAAACAAATTTTCCTAATCTTTCTGTTCAAGCGCCATCTAC” the value was 1.24 RPM ratio (pull-down/input); for “GATGATTGTTCTCCCAGCTGATGAATTATGTGTCTCGAGTAAACAAATTTTCCTAATCTTTCTGTTCAAGCGCCATCTAC”, 1.07 RPM ratio (pull-down/input). With “GATGATTGTTCTCCCAGCTGATGAATTGCTCAATTCGAGTAAACAAATTTTCCTAATCTTTCTGTTCAAGCGCCATCTAC”, the binding signal was 1.19 RPM ratio (pull-down/input). As to “GATGATTGTTCTCCCAGCTGATGAATTTAGCGCTTCGAGTAAACAAATTTTCCTAATCTTTCTGTTCAAGCGCCATCTAC”, the binding signal is 0.889 RPM ratio (pull-down/input).

In the case of “GATGATTGTTCTCCCAGCTGATGAATTAGAGTTGTCGAGTAAACAAATTTTCCTAATCTTTCTGTTCAAGCGCCATCTAC”, the binding signal is 1.14 RPM ratio (pull-down/input).

“GATGATTGTTCTCCCAGCTGATGAATTAGATTAATCGAGTAAACAAATTTTCCTAATCTTTCTGTTCAAGCGCCATCTAC”: the binding signal is 1.1 RPM ratio (pull-down/input).

“GATGATTGTTCTCCCAGCTGATGAATTCAGATAATCGAGTAAACAAATTTTCCTAATCTTTCTGTTCAAGCGCCATCTAC”: the binding signal was 1.19 RPM ratio (pull-down/input). On to “GATGATTGTTCTCCCAGCTGATGAATTCCCGCGTTCGAGTAAACAAATTTTCCTAATCTTTCTGTTCAAGCGCCATCTAC”, for which the binding signal is 0.922 RPM ratio (pull-down/input). Take “GATGATTGTTCTCCCAGCTGATGAATTCTGTGTCTCGAGTAAACAAATTTTCCTAATCTTTCTGTTCAAGCGCCATCTAC”: the binding signal was 0.971 RPM ratio (pull-down/input). As for “GATGATTGTTCTCCCAGCTGATGAATTCGCACCGTCGAGTAAACAAATTTTCCTAATCTTTCTGTTCAAGCGCCATCTAC”, the binding signal was 0.878 RPM ratio (pull-down/input). For “GATGATTGTTCTCCCAGCTGATGAATTACCTAGTTCGAGTAAACAAATTTTCCTAATCTTTCTGTTCAAGCGCCATCTAC” the value was 0.987 RPM ratio (pull-down/input); for “GATGATTGTTCTCCCAGCTGATGAATTACCCCCGTCGAGTAAACAAATTTTCCTAATCTTTCTGTTCAAGCGCCATCTAC”, 0.876 RPM ratio (pull-down/input).

On to “GATGATTGTTCTCCCAGCTGATGAATTTGTCGGTTCGAGTAAACAAATTTTCCTAATCTTTCTGTTCAAGCGCCATCTAC”, for which the binding signal was 1.01 RPM ratio (pull-down/input). With “GATGATTGTTCTCCCAGCTGATGAATTAGACCCATCGAGTAAACAAATTTTCCTAATCTTTCTGTTCAAGCGCCATCTAC”, the binding signal is 0.927 RPM ratio (pull-down/input).

As to “GATGATTGTTCTCCCAGCTGATGAATTCTGCAGGTCGAGTAAACAAATTTTCCTAATCTTTCTGTTCAAGCGCCATCTAC”, the binding signal was 0.748 RPM ratio (pull-down/input). As to “GATGATTGTTCTCCCAGCTGATGAATTAATGGAATCGAGTAAACAAATTTTCCTAATCTTTCTGTTCAAGCGCCATCTAC”, the binding signal is 0.934 RPM ratio (pull-down/input).

In the case of “GATGATTGTTCTCCCAGCTGATGAATTAATATTGTCGAGTAAACAAATTTTCCTAATCTTTCTGTTCAAGCGCCATCTAC”, the binding signal was 2.15 RPM ratio (pull-down/input). Regarding “GATGATTGTTCTCCCAGCTGATGAATTCCTGCTATCGAGTAAACAAATTTTCCTAATCTTTCTGTTCAAGCGCCATCTAC”, the binding signal is 0.953 RPM ratio (pull-down/input). In the case of “GATGATTGTTCTCCCAGCTGATGAATTGATCCGCTCGAGTAAACAAATTTTCCTAATCTTTCTGTTCAAGCGCCATCTAC”, the binding signal is 0.939 RPM ratio (pull-down/input). For “GATGATTGTTCTCCCAGCTGATGAATTTAATGGGTCGAGTAAACAAATTTTCCTAATCTTTCTGTTCAAGCGCCATCTAC”, the binding signal is 0.818 RPM ratio (pull-down/input). With “GATGATTGTTCTCCCAGCTGATGAATTCTTTTAATCGAGTAAACAAATTTTCCTAATCTTTCTGTTCAAGCGCCATCTAC”, the binding signal is 0.969 RPM ratio (pull-down/input). Take “GATGATTGTTCTCCCAGCTGATGAATTACATTCGTCGAGTAAACAAATTTTCCTAATCTTTCTGTTCAAGCGCCATCTAC”: the binding signal was 1.15 RPM ratio (pull-down/input). In the case of “GATGATTGTTCTCCCAGCTGATGAATTCGGGGTGTCGAGTAAACAAATTTTCCTAATCTTTCTGTTCAAGCGCCATCTAC”, the binding signal was 0.819 RPM ratio (pull-down/input). For “GATGATTGTTCTCCCAGCTGATGAATTGCGAGCGTCGAGTAAACAAATTTTCCTAATCTTTCTGTTCAAGCGCCATCTAC” the value was 1.01 RPM ratio (pull-down/input); for “GATGATTGTTCTCCCAGCTGATGAATTGATGAGATCGAGTAAACAAATTTTCCTAATCTTTCTGTTCAAGCGCCATCTAC”, 0.928 RPM ratio (pull-down/input); for “GATGATTGTTCTCCCAGCTGATGAATTACATGTTTCGAGTAAACAAATTTTCCTAATCTTTCTGTTCAAGCGCCATCTAC”, 1.31 RPM ratio (pull-down/input). For the sequence “GATGATTGTTCTCCCAGCTGATGAATTAAGTGTCTCGAGTAAACAAATTTTCCTAATCTTTCTGTTCAAGCGCCATCTAC”, the binding signal is 0.914 RPM ratio (pull-down/input). “GATGATTGTTCTCCCAGCTGATGAATTGGTGTGGTCGAGTAAACAAATTTTCCTAATCTTTCTGTTCAAGCGCCATCTAC”: the binding signal was 1.04 RPM ratio (pull-down/input). In the case of “GATGATTGTTCTCCCAGCTGATGAATTTTAAAGCTCGAGTAAACAAATTTTCCTAATCTTTCTGTTCAAGCGCCATCTAC”, the binding signal was 0.881 RPM ratio (pull-down/input). Regarding “GATGATTGTTCTCCCAGCTGATGAATTGAACAATTCGAGTAAACAAATTTTCCTAATCTTTCTGTTCAAGCGCCATCTAC”, the binding signal is 0.984 RPM ratio (pull-down/input).

As to “GATGATTGTTCTCCCAGCTGATGAATTGCCAATATCGAGTAAACAAATTTTCCTAATCTTTCTGTTCAAGCGCCATCTAC”, the binding signal was 1.28 RPM ratio (pull-down/input).

Regarding “GATGATTGTTCTCCCAGCTGATGAATTATTAGGGTCGAGTAAACAAATTTTCCTAATCTTTCTGTTCAAGCGCCATCTAC”, the binding signal was 0.905 RPM ratio (pull-down/input). As to “GATGATTGTTCTCCCAGCTGATGAATTCGGAAGTTCGAGTAAACAAATTTTCCTAATCTTTCTGTTCAAGCGCCATCTAC”, the binding signal was 0.856 RPM ratio (pull-down/input). With “GATGATTGTTCTCCCAGCTGATGAATTATATGAGTCGAGTAAACAAATTTTCCTAATCTTTCTGTTCAAGCGCCATCTAC”, the binding signal is 0.962 RPM ratio (pull-down/input).

Consider “GATGATTGTTCTCCCAGCTGATGAATTATCGGAGTCGAGTAAACAAATTTTCCTAATCTTTCTGTTCAAGCGCCATCTAC”, for which the binding signal was 0.871 RPM ratio (pull-down/input).
